Test results taken from PubChem BioAssay AID504444 (National Center for Advancing Translational Sciences (NCATS), 2011).
Hit rate of the full screen: of about 360,000 compounds, about 7,500 (2.1%) were called active. Not shown: some 20% with an inconclusive outcome. Calls come from the whole dose curve; as a rule, active = well fitted inhibition curve with a large enough effect; inconclusive = small, poorly fitted or top-dose-only effect, or effect the other way; inactive = flat fitted curve, though single readings scatter. The list shows a part of the results, in another mix than the full data.

assay: Nrf2 qHTS screen for inhibitors; settings: A549 ARE-Fluc reporter, luciferase luminescence, 18-24 h; series mostly up to 46 µM; activity change, negative = inhibition: at the top concentration; note: nearly all actives have a fitted effect of over 60% in size
Source text: NIH Molecular Libraries Probe Production Network [MLPCN]
NIH Chemical Genomics Center [NCGC]
Assay Provider: Shyam Biswal, Johns Hopkins University
Nrf2 is a transcription factor that maintains cellular redox homoestasis and protects cells from xenobiotics. Nrf2 binds to the antioxidant response element (ARE) to induce gene expression of a broad spectrum of genes that encode for antioxidants. […] Finding a small molecule that act as an inhibitor of Nrf2 function would represent a novel therapeutic target that could lead to improvement in survival of patients undergoing chemo- and/or radio- therapy.
This is the Nrf2 activity measured in the luminescent read.
1. Shibata, T., et al., Genetic Alteration of Keap1 Confers Constitutive Nrf2 Activation and Resistance to Chemotherapy in Gallbladder Cancer. Gastroenterology, 2008.
2. Sjoblom, T., et al., The consensus coding sequences of human breast and colorectal cancers. Science, 2006. 314(5797): p. 268-74.
NCGC Assay Protocol Summary:
A concentration-response assay was performed with A549 ARE_Fluc cells which are suspended in 5% FBS OPTI-MEM. Five uL were dispensed into 1536-well white TC-treated plate using the Kalypsys dispenser to achieve a density of 5000 cells/well in all columns except column 1. The plate is incubated at 37deg C at 5% CO2 for 2 hours before 23 nL of compounds are added with the Kalypsys pin tool equipped with a 1,536-pin array containing 10-nL slotted pins (FP1S10, 0.457-mm diameter, 50.8 mm long; V&P Scientific). The control compounds Budesonide and Staurosporine are both added at a concentration of 2mM and Budesonide is also added as a 1:10 titration, starting at 200uM, to achieve dose-response. After an 18-24 hour incubation at 37deg C at 5% CO2, 5ul of medium is added to column 1. Afterwards 1ul of 5x of CellTiter-Fluor (Promega) is added to every well. The plate is then incubated at 37deg C at 5% CO2 for 30 minutes before they are read on the ViewLux (Perkin Elmer) for a fluorescent read Ex=405(10)/Em=525(10) for a 3 second exposure, 2x binning, and high gain. Then 3 uL of 3x BugLite is dispensed into all wells and the plate is incubated at ambient room temperature for 15 minutes. Afterwards another ViewLux read is performed using the clear filter to get a luminescent read with the settings of 40 second exposure, 2x binning, and high gain. Cytotoxicity is assessed through the first fluorescent read and then biochemical activity against Nrf2 is measured in the luminescent read.
% is set by controls: 0 for no effect and ±100 for the full control effect; potency is the fitted concentration of half-maximal effect.

| Structure (SMILES) | activity change, negative = inhibition | Potency |
| --- | --- | --- |
| C=CC[C@H](CC(=O)N(CCO)Cc1ccccc1)C(=O)NCCOC(=O)[C@@H](CC=C)Cc1ccc(F)cc1 | inactive: -26.5% |  |
| C[C@@H]1CC[C@@]2(O[C@@H](CCO)C[C@H](O)[C@H]2O)O1 | inactive: 15.5% |  |
| Nc1nc2nc(-c3ccccc3)cc(=O)n2[nH]1 | inactive: -17.3% |  |
| O=S(=O)(c1c(F)cccc1F)N1CCN(S(=O)(=O)c2c(F)cccc2F)CC1 | inactive: -17.7% |  |
| COc1ccc(C(C)=O)cc1CSc1nnc(Nc2ccccc2)s1 |  | active: 23.1 µM |
| COc1ccccc1Nc1nc(N2CCOCC2)nc(N2CCOCC2)n1 | inactive: 1.15% |  |
| C[C@@H]1CC[C@]2(O[C@H](CCO)C[C@@H](O)[C@@H]2O)O1 | inactive: 13.3% |  |
| CC(=O)c1ccc(OCCNS(=O)(=O)c2ccc(-n3cnnn3)c(C)c2)cc1 |  | active: 5.8 µM |
| COC(C[C@H]1O[C@H]1[C@H](O)[C@H](C)OCc1ccccc1)OC | inactive: 14.8% |  |
| O=C(O)CC(=O)NC12CC3CC(CC(C3)C1)C2 | inactive: -11.4% |  |
| Cc1cc(C)cc(NC(=O)C(=O)NCCCN2CCOCC2)c1 | inactive: -0.538% |  |
| COc1ccc(/C=C/c2cc(C(=O)O)c3ccccc3n2)cc1 |  | active: 6.51 µM |
| Cc1cc(C)cc(NC(=O)Cn2nnc(C(=O)NCc3ccccc3Cl)c2N)c1 | inactive: -12.8% |  |
| Cn1cccc/c1=N\c1cccc[n+]1C |  | active: 2.91 µM |
| Cc1nc2c3ccccc3nc(NNC(=O)CCC(=O)N3CCN(c4ccc(F)cc4)CC3)n2n1 | inactive: 5.64% |  |
| CCN(CCCNC(=O)Cn1ncc2c([nH]c3ccc(C)cc32)c1=O)c1ccccc1 | inactive: 12.4% |  |
| CCCN1C(=O)S/C(=C\c2ccc(N3CCOCC3)o2)C1=O | inactive: 7.39% |  |
| Cc1ccc(CNc2nc3ccccc3n3cnnc23)cc1 | inactive: -12.6% |  |
| CCC1CCC2(C1)N=C(Nc1nc3ccccc3o1)NC1=C2C(=O)CCC1 (stereo not given) |  | inactive |
| Cc1cccc(N2CCN(C(=O)C(C)n3nc(C)n4c(cc5occc54)c3=O)CC2)c1C (stereo not given) | inactive: -4.78% |  |
| C=CC[C@H](CC(=O)N[C@H](CO)Cc1ccccc1)C(=O)N[C@H](COC(=O)[C@@H](CC=C)Cc1ccc(F)cc1)Cc1c[nH]c2ccccc12 | inactive: 0.241% |  |
| C[C@H]1CC[C@]2(O[C@H](CCO)C[C@H](O)[C@H]2O)O1 | inactive: 2.56% |  |
| Cc1cc(/C=C2\SC(=O)NC2=O)c(C)n1-c1ccc(N2CCOCC2)cc1 | inactive: 17.5% |  |

| Structure (SMILES) | activity change, negative = inhibition | Potency |
| --- | --- | --- |
| Cc1ccc(N2CCN(S(=O)(=O)c3nnc(NC(=O)c4ccccc4)s3)CC2)cc1 | inactive: 6.34% |  |
| Cc1ccc(OCCCCn2cnc3ccccc32)cc1 | inactive: 4.28% |  |
| N#Cc1nc(N)nc(N(c2ccccc2)c2ccccc2)n1 | inactive: -25.5% |  |
| C=CC[C@@H](CC(=O)N[C@H](CO)Cc1ccccc1)C(=O)N[C@H](COC(=O)[C@@H](CC=C)Cc1ccc(F)cc1)Cc1ccccc1 | inactive: -11.8% |  |
| Cc1ccc2oc(C(=O)N(Cc3ccc(N(C)C)cc3)CC3CCCO3)c(C)c2c1 (stereo not given) | inactive: -4.63% |  |
| Cc1ccccc1CC1(CO)CCCN(C(=O)c2cc(Cl)ccc2F)C1 (stereo not given) |  | active: 11.6 µM |
| Cc1ccc(SCCN2CCN(CC(C)C)CCC2=O)cc1 | inactive: 7.69% |  |
| Cc1cccc2sc(NNC(=O)c3cc(-c4cccs4)nc4ccccc34)nc12 |  | active: 23.1 µM |
| Cc1ccc(C(=O)Nc2nnc(S(=O)(=O)N3CCCCCC3)s2)cc1 | inactive: 12.9% |  |
| C=CC[C@@H](CC(=O)N[C@H](CO)Cc1ccccc1)C(=O)NC[C@@H](OC(=O)[C@@H](CC=C)Cc1ccc(F)cc1)c1ccccc1 | inactive: 2.6% |  |
| COc1ccccc1CN1CCC(CNS(=O)(=O)c2cc(-c3onc(C)c3C)ccc2OC)CC1 | inactive: -8.44% |  |
| COc1ccc(C2/C=C\CN(S(=O)(=O)c3ccc4ccccc4c3)CC(=O)N2Cc2ccc(F)cc2)cc1 (stereo not given) | inactive: 14.6% |  |
| Cc1ccc2ncc(S(=O)(=O)c3ccccc3)c(N3CCCCC3C)c2c1 (stereo not given) | inactive: -26% |  |
| O=C(CN1CCN(c2nc(-c3ccccc3)cs2)CC1)NCc1ccc2c(c1)OCO2 |  | active: 23.1 µM |
| O=C(NC(Nc1nc2ccc([N+](=O)[O-])cc2s1)(C(F)(F)F)C(F)(F)F)c1ccccc1Cl |  | active: 1.84 µM |
| COc1cc(C(=O)O[C@H]2C/C(C)=C/CC[C@]3(C)O[C@@H]3C(O)C2C(C)C)cc(OC)c1OC (stereo not given in full) | inactive: -24% |  |
| CCN(CC)S(=O)(=O)c1ccc(NC(=O)Nc2cccc(C(F)(F)F)c2)cc1 |  | active: 20.6 µM |
| CCC1CCCCN1CCCNC(=O)CN1C(=O)c2cccnc2Oc2ccc(C)cc21 (stereo not given) | inactive: 7.16% |  |
| COc1ccccc1CNS(=O)(=O)c1ccc2c(c1)CC(=O)N2C | inactive: 17.9% |  |
| N#CC(=C(O)COC(=O)Cc1c[nH]c2ccccc12)c1nc2ccccc2[nH]1 | inactive: 6.49% |  |
| Cc1nc2sccn2c(=O)c1S(=O)(=O)Nc1ccc(N2CCN(S(C)(=O)=O)CC2)cc1 | inactive: 4.11% |  |
| COc1ccc2cc3c(N)nn(C(=O)c4ccc(F)cc4)c3nc2c1 |  | active: 5.8 µM |
